# Measured values: paper PMC12136788
# The other results are listed elsewhere or left out.
# T1: UNK ZnF1-3 (human, UniProt Q9C0B0 31-174)
# T1 sequence: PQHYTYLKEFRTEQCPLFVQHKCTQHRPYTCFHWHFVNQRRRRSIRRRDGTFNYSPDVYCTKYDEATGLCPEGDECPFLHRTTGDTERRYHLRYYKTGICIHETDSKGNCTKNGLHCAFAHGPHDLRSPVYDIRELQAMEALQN
# B1: chr20:17587764:17587765:+_ENSG00000125868_ENST00000474024|hu_mus|motif|central (ssRNA)
# RNA: GGGAGUUCUACAGUCCGACGAUCGCACUGACUGGCGGUCUACACAGGGGAUCCUUCAAAGGCUACAAUUAAGGAGCCACCGGGCUUUUCAGCAAUACAGGUCCGAUUGAGGUCUUCUGGCCCAUUUGCUUGAUACUCAUGCUUCAACAGAGGAUUGAGCAUCA
# B2: chr7:157177620:157177621:+_ENSG00000105993_ENST00000429029|hu_hu|motif|central (ssRNA)
# RNA: GGGAGUUCUACAGUCCGACGAUCGCCCAUGCCACUACCACCAAAUGACGUGGAAGAGAAUGAAGUGAGGCCCCCGUGACCGGGUGACCCAAAUGAAGUAAAUCCUGUAUCAAAAGAAGAAAAUCCACUUCCAAAAGACGGAAACAACAGAGGAUUGAGCAUCA
# B3: 49896483_49898194_992_3pUTR_ENSMUSG00000055447_ENSMUST00000084838|mouse|control|control (ssRNA)
# RNA: GGGAGUUCUACAGUCCGACGAUCCCAAACCUGAAAUCAAAAGGGGGCCGUGCACUGGCUCACAUGCCAUGAUGCAGAGACACAGCCCGACCAAAGCAAGGACGUAGCCCAGCACUUGAGUGAUCAAUAUGGCAAUGGUGAAAGCAACAGAGGAUUGAGCAUCA
# B4: chr16:94664741:94664742:+_ENSMUSG00000040785_ENSMUST00000117648|mus_hu|mus_mus_mus_hu_False|88_98 (ssRNA)
# RNA: GGGAGUUCUACAGUCCGACGAUCUGGUACUGAUCUUUGCAUUGGAUACUCAGAAGAAAGGCUGGCCAAGGGUGUAUAUAUGCUGGUGUACUGGGGCAAACCUGGUAACACGUUUAUGUAUGCUGGCGGUGUCUGGGUGAUAUCCAACAGAGGAUUGAGCAUCA
# B5: chr16:29586362:29586363:+_ENSMUSG00000038084_ENSMUST00000160597|mus_hu|motif|central (ssRNA)
# RNA: GGGAGUUCUACAGUCCGACGAUCGCCACCCCCAACAGCCGAUCCUAGUAUGAGAUAGCGAAGUUUUAAGAGUCUCGUAGCGGAUCUUGCUGGCCAAAAAUUCCUGCGAGGCUGGUAGCCAUAUUUAAUUGGAGAGAAUUUCAGCAACAGAGGAUUGAGCAUCA
# B6: chr14:21319760:21319761:-_ENSMUSG00000021816_ENSMUST00000161445|mus_hu|motif|central (ssRNA)
# RNA: GGGAGUUCUACAGUCCGACGAUCAGCCAGCAGCAAAUCACCCUGGUGGCUCUCUAAGCAACUUGAGUACUCACAAUAAACGGAAAUUUCUCAUAACAUCUAGGUAACCUAUACAUGUCGUACCUGUACAUCAUAGGUCUAUAUCAACAGAGGAUUGAGCAUCA
# B7: chr8:15480645:15480646:+_ENSG00000104723_ENST00000503731|hu_hu|FALSE|FALSE (ssRNA)
# RNA: GGGAGUUCUACAGUCCGACGAUCCAUUCGGAAGAUUGAGCGUCUGGAACUCCAUUCCAUCAGCUGCUCUACUUUUUCAGCUAAAAGAUUCUCCUUUUUCUUCUGUCCUCCCCCGAGCUGGAUGCAGAGCAGCAGCAGCAGGAGCAACAGAGGAUUGAGCAUCA
# B8: 129699467_129699587_1627_CDS_ENSMUSG00000026349_ENSMUST00000027587|mouse|control|control (ssRNA)
# RNA: GGGAGUUCUACAGUCCGACGAUCGCCUUCAUCAGAAGAGCUGUGUCUUUCCGAGGAUGCCACUUUGAUUUUCAUCUUCAGCUCCUCUUUGCUGGGACCUUUGUCAGGCGGGGGGAUGGGAAUGCGGAGCUUCAGUGAUCCACUCAACAGAGGAUUGAGCAUCA
# B9: chr10:99542671:99542672:+_ENSMUSG00000019966_ENSMUST00000105283|mus_mus|motif|central (ssRNA)
# RNA: GGGAGUUCUACAGUCCGACGAUCACUAGUGUCAGAUGCCACCAUAAAGUCCUUAAAGGCAUCAAUGGAUCUAUUGAAAAUACGGAAGAAUUCUUCAGGAGUAAAGGAUCUAGUUUCUGGCCUCUUCGGAGAUUCUUUUAUAUUCAACAGAGGAUUGAGCAUCA
# B10: chr6:136600977:136600978:-_ENSG00000029363_ENST00000527536|hu_hu|FALSE|FALSE (ssRNA)
# RNA: GGGAGUUCUACAGUCCGACGAUCCGAGACCUAGAACUGUAUCGCUUCUUUCUAGAAUGAGAUCUUGAUCUUGAUCGAGAACUAGACUGUGAUCUAGACUUUGACCUUGAAGAAUGUGAUCUAGAAUUGGAGCGACCCAUUUCUCAACAGAGGAUUGAGCAUCA
# B11: chr2:61275951:61275952:+_ENSG00000162928_ENST00000295030|hu_hu|FALSE|FALSE (ssRNA)
# RNA: GGGAGUUCUACAGUCCGACGAUCGUUUUCAUUGGAUUGUACAUUCAUUUCUUUGUGAGAAAUAAUUUUAAAAAGUACUCUAAAGUAUUGUUCAACUGCAGGCAAACAUGAAAGAUAUCAAAGAUCUUGCUUUUCUCCAUCUUUCAACAGAGGAUUGAGCAUCA
# B12: chr5:24093644:24093645:+_ENSMUSG00000038181_ENSMUST00000088295|mus_mus|FALSE|FALSE (ssRNA)
# RNA: GGGAGUUCUACAGUCCGACGAUCUUCCCAACCCUAUGUCUGGUCUUCAGUGGCCAUGGUGCUGAUACCCUCAGUAAAAUACUAAUGUCUAUGUGAGCAAUGCCACUCCCUACGGGGAUUGCAGUCUGUAGUCCAGGAAAAAGACAACAGAGGAUUGAGCAUCA
# B13: chr15:27661301:27661302:-_ENSMUSG00000022263_ENSMUST00000090247|mus_mus|motif|central (ssRNA)
# RNA: GGGAGUUCUACAGUCCGACGAUCCCCACCCCCAACACACACAGAACCAUAAAGCUCACUUGCGAAGUAUGUGCUUUUUCGGUAUAUUUAUUACAUGUAUAACAGAAGUCUUCAUAAAUAGUUGCAGAAAAUGUUAAAGCCACACAACAGAGGAUUGAGCAUCA
# B14: 120675030_120675150_4139_CDS_ENSMUSG00000025153_ENSMUST00000055655|mouse|control|control (ssRNA)
# RNA: GGGAGUUCUACAGUCCGACGAUCGGCAUGUCCUUUGAGCACUGUGUGCACUAGCAGGAAACCACCUUCCUUGAGGGCAGCUACCAUGUUGUCCAGGGCCAAGGCUGGAUCCCCCAGGGUGGCUAAUGCACAGUUGCACACCAGCAACAGAGGAUUGAGCAUCA
# B15: 38066641_38066761_1075_CDS_ENSG00000156735_ENST00000287322|human|control|control (ssRNA)
# RNA: GGGAGUUCUACAGUCCGACGAUCAGGGGGUGACUGGGGAGAGCCACUGCUAGGCCAUGGUGAAGUACUUUCAGUCAUGUAGAGAUUGCCGGGUGGUGCUGAGGGCGCUGAUGAAGGCCAGGGAUAACGGCCACCCAUUCCAUACAACAGAGGAUUGAGCAUCA
# B16: chr4:122741918:122741919:-_ENSG00000145386_ENST00000274026|hu_mus|FALSE|FALSE (ssRNA)
# RNA: GGGAGUUCUACAGUCCGACGAUCGUCUGGCUGCCUCUUCAUGUAACCCACUUUAGGUUUACAUUUAACCUCCAUUUCCCUAAGGUACGUGUGAAUGUCUUCUUGAUAGUCAGGUACUUCAUUAACGUUCACUGGCUUGUCUUCCAACAGAGGAUUGAGCAUCA
# B17: 70590105_70590225_2005_CDS_ENSG00000189091_ENST00000302516|human|control|control (ssRNA)
# RNA: GGGAGUUCUACAGUCCGACGAUCGGAGAUGAUUCUGACAGUGUUGUCCACAAGCCCCACAGCCAGGAAGCGAGACCGCUGCUCUCCAGGGGGUACAUUGGCCAGACUCAUGCACACCACAUCUGCUGACAUCUCCUUCCGUUCCAACAGAGGAUUGAGCAUCA
# B18: chr14:78183846:78183847:+_ENSG00000119705_ENST00000557342|hu_hu|hu_hu_hu_mus_False|58_58 (ssRNA)
# RNA: GGGAGUUCUACAGUCCGACGAUCUCUCAGAAAUCUUUCUUCAUCAGAUGUUUGAGCUCCGUGCAAAGCCUUUGCUCUUCUAGUGUGAACGUGGAUCUAUGGGAGGGAAAGCACUGUCAGAAAAGGUAAUUUUUUUUUUAAAGACAACAGAGGAUUGAGCAUCA
# B19: 67948388_67949015_857_CDS_ENSMUSG00000079614_ENSMUST00000025421|mouse|control|control (ssRNA)
# RNA: GGGAGUUCUACAGUCCGACGAUCACCAGAGGAAGUAAGUUCUUUCCUCAGAGGUUUUAAUGUGAAAAUUCUUACAUCUUUGGUUGCUACUGCCAGGAUGUGGAAAGAUCUUCCCAAAUUUGGAGCAAACGCGAUAUCAUGGACCAACAGAGGAUUGAGCAUCA
# B20: chr2:217001844:217001845:+_ENSG00000079246_ENST00000392132|hu_hu|hu_hu_hu_mus_False|58_108 (ssRNA)
# RNA: GGGAGUUCUACAGUCCGACGAUCACCGACUUGAGGAUUAGAUCUUUUGUCAUAAGCAUAUCGGACGAUGGCGACCAUGUCUAAGUCAUCCAAAGCAUGAACGAGAGAGGAAAGGGCAACAGCUGCCGCCUCAUCAUCCUUUGCCAACAGAGGAUUGAGCAUCA
# B21: 17271496_17271616_280_CDS_ENSG00000026025_ENST00000224237|human|control|control (ssRNA)
# RNA: GGGAGUUCUACAGUCCGACGAUCGGAGCGCGUGGCAUACACGCCGCCCGGGGACGAGGCGUAGAGGCUGCGGCUGGUGCUGGGGCGCAGCGCGCUGCCCAGGCUGUAGGUGCGGGUGGACGUAGUCACGUAGCUCCGGCUGGACAACAGAGGAUUGAGCAUCA
# B22: 49561091_49561211_87_3pUTR_ENSMUSG00000037892_ENSMUST00000035931|mouse|control|control (ssRNA)
# RNA: GGGAGUUCUACAGUCCGACGAUCGGCGGAGUCUGCAGUCUGUGUUUCCCGGGCGAUUCUUGAUUUUCCCCCCUUUCCUUUUCUCUGCUCCGCUGCAGACUAAACACCGGUGAUUGCUGACUCCAGUCUGAAAAUCUCUACAACCAACAGAGGAUUGAGCAUCA
# Target: T1, UNK ZnF1-3
# Assay: nsRBNS (natural sequence RNA bind-n-seq); RBNS binding buffer (assumed for nsRBNS): 25 mM Tris pH 7.5, 150 mM KCl, 3 mM MgCl2, 0.01% Triton X-100, 500 ug/ml BSA, 20 U/ml SUPERase-In, 4 C; UNK is unkempt and MSI1 is Musashi-1; names of the RNAs are library labels; protein concentration not given here; high values mean tight binding
row,Binder,binding signal
1,B1,1.06 enrichment R
2,B2,1.21 enrichment R
3,B3,1.44 enrichment R
4,B4,1.14 enrichment R
5,B5,1.53 enrichment R
6,B6,0.771 enrichment R
7,B7,0.755 enrichment R
8,B8,0.754 enrichment R
9,B9,1.14 enrichment R
10,B10,0.212 enrichment R
11,B11,0.54 enrichment R
12,B12,0.929 enrichment R
13,B13,2.28 enrichment R
14,B14,0.382 enrichment R
15,B15,1.16 enrichment R
16,B16,0.306 enrichment R
17,B17,0.612 enrichment R
18,B18,1.49 enrichment R
19,B19,0.981 enrichment R
20,B20,2.05 enrichment R
21,B21,0.289 enrichment R
22,B22,0.762 enrichment R
